Measured values as given in PubChem BioAssay AID651820 (National Center for Advancing Translational Sciences (NCATS), 2012).
The campaign covered roughly 340,000 compounds. About 12,000 (3.5%) were called active. The inconclusive results got no clear call from the source; some entries with a clear call stand among them for comparison. Calls follow the shape of the dose curve; as a rule, active = well fitted inhibition curve with a large enough effect; inconclusive = small, poorly fitted or top-dose-only effect, or another doubt; inactive = no such curve, though single readings can be large or run the other way. No potency is given beside an inconclusive call; the fits are too rough.

Test: qHTS Assay for Inhibitors of Hepatitis C Virus (HCV)
Conditions: Huh7.5.1 HCVcc-Cre (HCVcc is cell-culture hepatitis C virus) infection, luciferase reporter, 44 h; activity change, negative = inhibition: at 41.8 µM (top of the series) unless noted
Method in brief: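 Seed cells (1,000/well) for 4 h; treat with compound and infect with HCVcc-Cre, moi about 0.5. Incubate 44 h, then detect luciferase activity.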
% is scaled to controls: 0 for no effect and ±100 for the full control effect; potency is read from the fitted curve at half-maximal effect; tags tell the direction and shape of the fitted curve.

Row | Compound | activity change, negative = inhibition | Potency
1 | COC(=O)c1ccccc1S(=O)(=O)N(Cc1cc2cc3c(cc2[nH]c1=O)OCO3)C1CCCCC1 | inactive: -14.2% | –
2 | COC(=O)c1ccc(Nc2nc(C)nc3c2nnn3Cc2ccccc2)cc1 | – | inconclusive [inhibitor, full curve]
3 | CC(=O)N/C(=C\c1ccccc1)C(=O)OC(C)C(=O)Nc1ccccc1F (stereo unspecified) | inactive: -1.54% | –
4 | O=C(NCc1ccccc1)c1ncn[nH]1 | inactive: 24.1% | –
5 | CCc1ccc(N/C(SCc2ccccc2C)=C(/C#N)C(=O)NCc2ccco2)cc1 | – | inconclusive [inhibitor, single point]
6 | COc1ccc(-n2c(Cn3nnc4ccccc43)nnc2SCC(=O)O)cc1 | inactive: 12.4% | –
7 | CCCS(=O)(=O)C(=C1Nc2ccccc2N1)S(=O)(=O)CCC | – | inconclusive [inhibitor, partial curve, poor fit]
8 | CCN(CC)CC(=O)Nc1nc(-c2ccc(Cl)cc2)cs1 | – | inconclusive [inhibitor, partial curve]
9 | CC1CCCC(C)N1CCCNC(=O)c1cc2c(s1)-c1ccccc1OC2 (stereo unspecified) | – | inconclusive [inhibitor, full curve]
10 | CCOc1cc(C)cc2oc(=O)c3c(c12)CCCC3 | – | inconclusive [inhibitor, full curve, poor fit]
11 | COCCNC(=O)/C(C#N)=C/c1ccc(-c2ccc(S(=O)(=O)N3CCOCC3)cc2)o1 | inactive: 9.87% | –
12 | CCCOC(=O)c1ccc(NC(=O)c2ccccc2[N+](=O)[O-])cc1 | – | inconclusive [inhibitor, partial curve]
13 | CCCOc1ccc(C(=O)NC(=S)NCc2cccnc2)cc1 | – | inconclusive [inhibitor, partial curve]
14 | CC(C)CC1(C(=O)NCCN2CCOCC2)C=CCN1C(=O)c1ccccc1 (stereo unspecified) | inactive: 31.8% | –
15 | c1ccc(-c2cnc(-c3cccnc3)o2)cc1 | – | inconclusive [inhibitor, single point]
16 | CCn1cc(/C=C(\NC(=O)c2ccc(OC)cc2)C(=O)N2CCOCC2)c2ccccc21 | inactive: -15.1% | –
17 | Cc1ccc(C(C)C)c(OCC(=O)Nc2ccc3c(c2)nc(CN2CCCC2)n3C)c1 | – | inconclusive [inhibitor, partial curve]
18 | Clc1ccc(-c2c[n+](Cc3ccc(Cl)c(Cl)c3)c3n2CCC3)cc1 | inactive: 4.3% | –
19 | CCO[C@H]1OC(C(=O)NCc2ccccc2)=C[C@@H](C2CC2)[C@@H]1CCCO | inactive: -20.9% | –
20 | CCOc1ccc(C(=O)NCCCCNC(=O)c2ccc(OCC)cc2)cc1 | – | inconclusive [inhibitor, full curve]
21 | CCOc1ccc(CCNC(=O)Cn2nc(C)c3c(C)n(-c4ccccc4)nc3c2=O)cc1OCC | – | inconclusive [inhibitor, partial curve, poor fit]
22 | CC(C)OP(=O)(OC(C)C)/C(C=O)=N\Nc1ccc([N+](=O)[O-])cc1 | – | inconclusive [inhibitor, single point]
23 | COc1ccc(CN2CCCC(CNC(=O)c3ccc(F)cc3)C2)c(C)c1C (stereo unspecified) | inactive: -7.42% | –
24 | CCOc1cc(/C=N/O)cc(Br)c1OCC(=O)NCc1ccccc1 | – | inconclusive [inhibitor, single point]

Row | Compound | activity change, negative = inhibition | Potency
25 | COc1ccc(Cl)cc1NC(=S)NCCSc1ccc(C)cc1 | – | inconclusive [inhibitor, partial curve]
26 | CCN1CCN(Cc2ccc(NC(=O)c3ccc(C)c(NC(=O)c4cncc(-c5cccs5)c4)c3)cc2C(F)(F)F)CC1 | – | inconclusive [inhibitor, full curve, poor fit]
27 | CCOC(=O)c1c(C)n(C(C)C)c2ccc(OC)cc12 | – | inconclusive [inhibitor, partial curve, poor fit]
28 | COc1ccc(NC(=O)CSc2nc3ccccc3c3nc4ccccc4n23)cc1 | – | inconclusive [inhibitor, full curve]
29 | COc1ccccc1N=c1sc2ccccc2n1C | – | active: 1.78 µM
30 | CC(C)CCNC(=O)Cc1ccc(Nc2nc(=S)[nH]c3ccccc23)cc1 | – | inconclusive [inhibitor, partial curve]
31 | O=C(c1ccc(S(=O)(=O)N2CCCCC2)cc1)N1CCCc2ccccc21 | inactive: 5.17% | –
32 | Cc1cccc(-c2nc(Nc3cccc(O)c3)c3ccccc3n2)c1 | – | inconclusive [inhibitor, single point]
33 | O=C(Nc1ccc(Oc2cccc(C(F)(F)F)c2)nc1)c1cccs1 | – | inconclusive [inhibitor, single point]
34 | Cc1ccc2c(CN3C(=O)NC(C)(c4ccc5c(c4)OCO5)C3=O)cc(=O)oc2c1 (stereo unspecified) | – | inconclusive [inhibitor, single point]
35 | Cc1ccc(C(=O)N(CCN(C)C)CC2CCCN(Cc3ccccc3F)C2)cc1C (stereo unspecified) | – | active: 11.2 µM
36 | O=C(NC(=S)NCCN1CCOCC1)c1ccccc1 | inactive: 1.89% | –
37 | Cn1c(=O)c(=O)n(C)c2cc(N3CCCC3)c(NS(=O)(=O)c3ccc(Cl)cc3)cc21 | – | inconclusive [inhibitor, single point]
38 | CC(=O)c1ccc(N2CCN(CC(O)COC(c3ccccc3)c3ccccc3)CC2)cc1 (stereo unspecified) | – | active: 3.98 µM
39 | O=S(=O)(Nc1ccc2c(c1)OCCO2)c1cccs1 | inactive: 4.36% | –
40 | O=C(CC(=O)Nc1ccccc1C(F)(F)F)Nc1ccccc1C(F)(F)F | inactive: 7.24% | –
41 | Cc1ccc(-c2cc(-c3ccc(C)o3)nc(N)c2C#N)cc1 | inactive: -19.2% | –
42 | O=S(=O)(/C=C/c1ccccc1)Oc1ccccc1 | – | inconclusive [inhibitor, single point]
43 | O=C(c1ccc(S(=O)(=O)N2CCCCCC2)cc1)N1CCN(c2ccccc2F)CC1 | – | inconclusive [inhibitor, single point]
44 | Cc1oc(-c2cccc(Cl)c2)nc1CS(=O)(=O)CC(=O)NCCN1CCCC1 | – | inconclusive [inhibitor, single point]
45 | Cc1ccc(NC(=O)NCC2CCN(Cc3cccc(Cl)c3)CC2)c(Cl)c1 | – | active: 12.6 µM
46 | CCOC(=O)c1c(NC(=O)CN2CCCCC2)sc(C)c1C | inactive: -24.3% | –
47 | CC(=O)c1ccc(S(=O)(=O)N2CCN(CCOc3ccc(Br)cc3)CC2)cc1 | – | inconclusive [inhibitor, full curve]
48 | CCN(C(=O)C1CCN(c2nc(-c3ccc(OC)cc3)no2)CC1)c1ccccc1 | – | active: 10 µM

Row | Compound | activity change, negative = inhibition | Potency
49 | Cc1ccc2cc(C)c(SCC(=O)Nc3ccc(S(=O)(=O)N4CCCC4)cc3)nc2c1 | – | inconclusive [inhibitor, full curve]
50 | COCC(C)n1c(C)cc(C(=O)COc2ccc(S(=O)(=O)N3CCOCC3)cc2Cl)c1C (stereo unspecified) | – | active: 14.1 µM
51 | C=C1C(=O)C2=CC1CCC(=O)C1(C)CCC(OC(C)=O)C(C)(C)C1CC2O (stereo unspecified) | – | active: 11.2 µM
52 | C=CCNc1oc(/C=C/c2ccccc2)nc1C#N | – | inconclusive [inhibitor, full curve, poor fit]
53 | Cc1ccc(-c2nc(NC(=O)c3cc(C(C)(C)C)nn3C)sc2C)cc1Cl | – | inconclusive [inhibitor, full curve]
54 | COc1ccc(Br)cc1CN(C)CC(=O)Nc1cc([N+](=O)[O-])ccc1OC | – | inconclusive [inhibitor, partial curve]
55 | Nc1ccc(C#Cc2ccc3c(=O)c4ccccc4oc3c2)cc1 | – | inconclusive [inhibitor, single point]
56 | COc1ccc(S(=O)(=O)N2CCCCCC2)cc1NC(=O)CN1C(=O)NC(C)(c2ccc(C)cc2)C1=O (stereo unspecified) | – | inconclusive [inhibitor, partial curve]
57 | O=C1C=C(c2ccc(Cl)c(C(F)(F)F)c2)C[C@@H](c2ccc(Cl)cc2)C1 | inactive: 3.61% | –
58 | CCSc1nnc(NC(=O)C(C)Sc2nc3ccccc3[nH]2)s1 (stereo unspecified) | inactive: 11.7% | –
59 | CN(C(=O)Oc1ccc(C(C)(C)C)cc1)c1ccccc1 | – | inconclusive [inhibitor, single point]
60 | COCCCNC(=S)N1CCC(NC(=O)Nc2ccc(C)cc2)CC1 | inactive: -2.98% | –
61 | CN(Cc1ccc(F)cc1)C(=O)c1cccc(S(=O)(=O)NCc2ccccc2)c1 | – | inconclusive [inhibitor, single point]
62 | O=C(CC1CCCC1)Nc1cc(C(F)(F)F)ccc1-n1cncn1 | – | inconclusive [inhibitor, single point]
63 | Cc1cc(Nc2ccc([N+](=O)[O-])cc2)nc2ccccc12 | – | inconclusive [inhibitor, partial curve]
64 | CN(Cc1cccs1)c1nc(-c2cccnc2)nc2ccccc12 | – | inconclusive [inhibitor, single point]
65 | CC1(C)C(=O)OC(c2cccn2-c2cccc([N+](=O)[O-])c2)C2(CCCCC2)C1=O (stereo unspecified) | inactive: -9.87% | –
66 | COc1ccc(OC)c(-c2cc(C3CCN(c4cc(Cl)nc(N)n4)CC3)[nH]n2)c1 | – | inconclusive [inhibitor, single point]
67 | Nc1c(Br)cc2c([nH]c(=O)c3ccccc32)c1Br | – | inconclusive [inhibitor, single point]
68 | CCCSC1C(C)=C(C)C(=O)N1Cc1ccccc1 (stereo unspecified) | inactive: 4.1% | –
69 | Cc1ccccc1C(=O)N1CCN(c2ccc([N+](=O)[O-])c(NCc3cccnc3)c2)CC1 | – | inconclusive [inhibitor, partial curve, poor fit]
70 | Cc1ccc(C2=NN(C)c3nc4ccccc4n3C2)cc1 | – | inconclusive [inhibitor, single point]
71 | CC(C)CC(OC(=O)c1nsc(Cl)c1Cl)C(=O)NCC1CCCO1 (stereo unspecified) | inactive: 13.4% | –
